Results: PubChem BioAssay AID1631 (National Center for Advancing Translational Sciences (NCATS), 2009)
The whole screen tested about 260,000 compounds, of which about 890 (0.34%) were called active. The inconclusive results got no clear call from the source; some entries with a clear call stand among them for comparison. Calls come from the whole dose curve; as a rule, active = well fitted activation curve with a large enough effect; inconclusive = small, poorly fitted or top-dose-only effect; inactive = no such curve, though single readings can be large or run the other way. Potencies beside an inconclusive call are fits to weak or partial responses and may not hold up.

molecular target: Pyruvate kinase PKM (Homo sapiens) (UniProt P14618); assay: qHTS Assay for Activators of Human Muscle isoform 2 Pyruvate Kinase; settings: purified PKM2, Kinase-Glo ATP luminescence; Potency: activation; activation: at 57.5 µM (top of the series), 0% is enzyme alone, no compound; note: nearly all actives have a fitted effect of over 55% in size
Summary of the method: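 hPK-M2, >95% pure; 0.1 mM ADP / 0.5 mM PEP final; imidazole pH7.2 buffer w/ 7 mM MgCl2, 50 mM KCl; 1 h RT; Kinase-Glo lum. Intermediate enzyme activity for dual inhibitor/activator qHTS.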
% is set by controls: 0 for no effect and ±100 for the full control effect; potency is the fitted concentration of half-maximal effect; tags give direction and shape of the fitted curve.

UniProt P14618, sequence (P14618 whole entry, looked up, canonical isoform): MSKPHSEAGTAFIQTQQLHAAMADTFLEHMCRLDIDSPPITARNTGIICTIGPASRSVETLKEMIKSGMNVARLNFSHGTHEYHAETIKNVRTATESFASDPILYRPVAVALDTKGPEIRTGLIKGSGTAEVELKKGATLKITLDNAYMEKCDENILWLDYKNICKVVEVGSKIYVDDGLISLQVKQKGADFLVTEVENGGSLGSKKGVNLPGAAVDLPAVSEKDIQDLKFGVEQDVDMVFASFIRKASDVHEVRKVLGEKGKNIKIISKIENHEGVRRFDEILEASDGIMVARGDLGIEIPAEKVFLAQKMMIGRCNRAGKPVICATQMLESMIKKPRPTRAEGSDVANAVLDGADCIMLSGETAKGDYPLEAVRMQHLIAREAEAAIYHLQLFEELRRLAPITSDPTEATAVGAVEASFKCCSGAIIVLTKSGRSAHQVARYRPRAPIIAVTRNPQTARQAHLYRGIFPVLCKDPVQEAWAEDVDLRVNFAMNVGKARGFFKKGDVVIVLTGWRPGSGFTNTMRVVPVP

Potency, active:
COc1cccc(CNC(=O)CCC2CCCN(C(=O)c3cc(C4CC4)[nH]n3)C2)c1 (stereo not drawn) 3.55 µM
COc1cc(NC(=O)CSc2nnc3c(n2)[nH]c2ccc(S(=O)(=O)NC(C)C)cc23)cc(OC)c1OC 0.794 µM
CNC(=O)NC(=O)CSc1ncc(C(F)(F)F)cc1Cl 0.398 µM
COCCn1c(N)c(C(=O)NS(=O)(=O)c2ccc(C)cc2)c(=O)[nH]c1=O 25.1 µM
C/C=C\C=C/C(=O)Nc1cccc(C2=NOC3(C2)C[C@@H](C(N)=O)N(C(=O)COc2ccc(Cl)cc2)C3)c1 (stereo partly drawn) 15.8 µM

Potency, inconclusive:
Cc1cc(C)c(Cn2cnc(-c3ccc([N+](=O)[O-])cc3)c2)c(C)c1 39.8 µM [rising, single point]
COc1ccc(CC2(CO)CCN(Cc3cccnc3)CC2)cc1 7.94 µM [rising, full curve]
CCOc1ccc(-c2nnc(SCC(=O)Nc3cc(C)on3)o2)cc1 2.51 µM [rising, full curve, poor fit]
C=CCc1cccc(CNc2nc3ccccc3n2CC)c1O 22.4 µM [rising, single point]
N#C/C(=C/c1ccc(N2CCCCC2)o1)c1cccc(F)c1 5.01 µM [rising, full curve, poor fit]
COc1cc(/C=N/NS(=O)(=O)c2ccccc2)ccc1OS(=O)(=O)c1ccc(C)cc1 28.2 µM [rising, single point]
COC(=O)C1=C(NC(=O)CCCCl)CCS1 39.8 µM [rising, single point]
COc1ccc(-c2oc3ncnc(NCCN4CCOCC4)c3c2-c2ccc(OC)cc2)cc1 2 µM [rising, partial curve, poor fit]
COc1cc(C(=O)NCC(=O)N2CCN(S(=O)(=O)c3cc(C)ccc3C)CC2)cc(OC)c1OC 15.8 µM [rising, partial curve]
COc1cc2c(-c3ccc(O)cc3)nc3c(c(C)nn3-c3ccccc3)c2cc1OC 5.62 µM [rising, full curve]
NC(=O)c1ccc(N2CCCCCC2)c([N+](=O)[O-])c1 14.1 µM [rising, partial curve, poor fit]
O=c1[nH]c2ccc(N/C(=N/S(=O)(=O)c3ccccc3)c3ccccc3)cc2[nH]1 39.8 µM [rising, single point]
Nc1nc2c(c(=O)[nH]1)C(c1cccc3ccccc13)C1=C(N2)c2ccccc2C1=O (stereo not drawn) 22.4 µM [rising, partial curve]
CCOC(=O)/C=C/C(=O)OCC(=O)Nc1ccc([N+](=O)[O-])cc1 22.4 µM [rising, partial curve]
Nc1nc(NCc2ccc(Cl)cc2)nc(NCCO)c1[N+](=O)[O-] 15.8 µM [rising, partial curve]
CCOC(=O)C(C(C)=O)c1c(Br)c(O)c(O)c2c(C(=O)c3ccc(C)cc3)coc12 (stereo not drawn) 5.01 µM [rising, full curve]
Cn1cnnc1SCc1ccc(-c2ccc(Br)cc2)o1 25.1 µM [rising, single point]
O=C(O)CCC(=O)c1ccc2c(c1)OCCO2 6.31 µM [rising, single point]
Cn1c(SCC(=O)Nc2cccc(O)c2)nnc1-c1ccc(S(=O)(=O)N2CCOCC2)cc1 28.2 µM [rising, partial curve]
Cc1ccc(S(=O)(=O)NCC(=O)N(CC(=O)NC2CCCC2)c2ccc3c(c2)OCCO3)cc1 6.31 µM [rising, single point]
Cc1ccc(C2CC(c3cccc(C)c3)n3ncnc3N2)cc1 (stereo not drawn) 25.1 µM [rising, single point]
Cn1c(=O)c2c(nc(CN3CCc4ccccc4C3)n2Cc2ccccc2F)n(C)c1=O 14.1 µM [rising, partial curve, poor fit]
CC(C)CCn1cnc2c1c(=O)n(CC(=O)NC(N)=O)c(=O)n2Cc1ccccc1 22.4 µM [rising, partial curve]
Cc1ccc(C(=O)/C=C\C(=O)c2ccc(C)cc2)cc1 2 µM [rising, full curve]
CCC(C(=O)Nc1nccs1)(C(F)(F)F)C(F)(F)F 1.78 µM [rising, partial curve]
Cc1cccc(NC(=S)N(CCN(C)C)Cc2cc3cccc(C)c3[nH]c2=O)c1 0.447 µM [rising, single point]
COc1cccc(NC(=O)CSc2ncnc3c2cnn3Cc2ccccc2)c1 8.91 µM [rising, partial curve]
CC(C)(C)C1C/C(=C/c2ccco2)C(=O)/C(=C/c2ccco2)C1 (stereo not drawn) 15.8 µM [rising, partial curve]
COc1ccc(C2Nc3ccccc3C(=O)N2Cc2ccco2)cc1COc1ccc([N+](=O)[O-])cc1 (stereo not drawn) 3.16 µM [rising, full curve]
O=c1cc(CSc2nnnn2-c2ccccc2)nc2sccn12 1.58 µM [rising, full curve]
COc1ccccc1C(=O)N=C1NC(=O)CC2C(=O)NCCN12 (stereo not drawn) 39.8 µM [rising, single point]
Oc1ccccc1-c1nnc(COc2ccccc2)o1 0.501 µM [rising, single point]
Fc1ccccc1C1CC(c2ccco2)=Nc2ccccc2S1 (stereo not drawn) 5.01 µM [rising, full curve]
Cc1cc(Cl)ccc1C(=O)C1CCCN(C(=O)c2cscn2)C1 (stereo not drawn) 35.5 µM [rising, single point]
Cc1nc(SCc2ccccc2F)c2oc3ccccc3c2n1 8.91 µM [rising, partial curve]
CC(=O)N1CCc2cc(C(=O)CN3CCN(c4ccccc4F)CC3)ccc21 44.7 µM [rising, partial curve, poor fit]

activation, inactive:
Cc1ccccc1OCC(=O)N/N=C/c1ccc([N+](=O)[O-])o1 7.23%
CN(C)CCNc1nc2sc3c(c2c(=O)n1-c1ccccc1)CCCCC3 -2.77%
CCOc1ccc(/C=C/C(=O)c2cc(Br)ccc(=O)c2O)cc1 1.89%
CCc1cc2c(=O)c(-c3nc4ccccc4[nH]3)coc2c(CN2CCCCC2C)c1O (stereo not drawn) 0.395%
CCN1CCN(C(c2cccs2)C(C)NC(=S)Nc2cccc(C)c2C)CC1 (stereo not drawn) -0.0998%
CSc1ncccc1C(=O)Nc1ccc(S(=O)(=O)NC2=NCCCCC2)cc1 2.44%
CCC1(C)Cc2c(sc3nc(NC)n(C)c(=O)c23)CO1 (stereo not drawn) -9.86%
Cc1cc[n+]2n1CC(O)C2 (stereo not drawn) -11.5%
CCOC(=O)Cc1csc(NC(=O)CSc2nnc(-n3nc(C)cc3C)c3ccccc23)n1 -0.706%
COc1ccc(N=C2S/C(=C\c3cc(C)n(C)c3C)C(=O)N2C)cc1 13%
O=C(NCc1ccco1)c1c2c(nc3ccccc13)CCC2 20.6%
CCOc1cc(NC(=S)Nc2ccc(Cl)cc2)c(OCC)cc1NC(C)=O -0.989%
CN(C)S(=O)(=O)c1cccc(NC(=S)N/N=C/c2cc(Br)ccc2O)c1 -2.39%
CCc1n(CC(O)COCC2CC=CCC2)c2ccccc2[n+]1C (stereo not drawn) -5.8%
CC(=O)Nc1ccccc1OCC(=O)NCCc1ccc(Cl)cc1Cl 4.76%
O=[N+]([O-])c1cc(CN2CCN(c3cccc(C(F)(F)F)c3)CC2)c2cccnc2c1O -1.65%
COc1ccc(O)c(/C=N/NC(=O)c2ccc(N3CCCC3=O)cc2)c1 -3.92%
Cc1c(N2C(=O)/C(=C\c3ccc(N(C)C)cc3)N(C)C2=S)c(=O)n(-c2ccccc2)n1C -12.6%
Cn1c(C23CC4CC(CC(C4)C2)C3)n[nH]c1=S -10.7%
COc1c(C(=O)Nc2ccc(Cc3ccncc3)cc2)ccc2ccccc12 -12.3%
CN(C)S(=O)(=O)c1cccc(-c2nn(-c3ccccc3)cc2/C=C(\C#N)c2nc3ccccc3[nH]2)c1 -0.872%
O=C(NNc1nc(-c2ccccc2)c2cc(Br)ccc2n1)c1ccc(S(=O)(=O)N2CCOCC2)cc1 -1.4%
Cc1csc(NC(=O)CSc2nnc(-c3ccoc3C)o2)n1 -6.42%
O=C1c2cccc3c([N+](=O)[O-])ccc(c23)C(=O)N1c1ccc(Cl)cn1 -0.398%
C(=N\n1cnnc1)/c1ccc(OCc2cccc3ccccc23)cc1 -0.549%
S=c1[nH]cnc2scc(-c3ccc(Br)cc3)c12 2.69%
O=C(Nc1ccc(-c2nc3ccccc3o2)cc1)c1ccc2c(c1)OCO2 -2.05%
COc1ccc(C(=O)NNC(=O)c2ccccn2)cc1 -78.4%
COc1ccc(C2OC(=O)CC2C(=O)NCc2ccc(F)cc2)cc1OC (stereo not drawn) 3.7%
N#CCC(=O)N/N=C\c1cc(Br)ccc1OC/C=C/c1ccccc1 -7.05%
O=C(Nc1cc(S(=O)(=O)N2CCOCC2)ccc1N1CCCC1)c1cc(=O)[nH]c2ccccc12 -12.5%
CN(C)CCCNC(=O)C1CCNCC1 2.04%
Cc1ccc(SCC(=O)c2c(C)nc3ccccn23)cc1 0.111%
CN1CCN(C(c2cccs2)c2nnnn2Cc2ccc(F)cc2)CC1 (stereo not drawn) 0.808%
O=C(N/N=C/c1ccc(OC(=O)c2ccccc2Cl)cc1)c1cc(O)cc(O)c1 14.8%
C/C(=N\NC(=O)Cc1ccccc1)c1cccs1 1.41%
CCc1cccc(NC(=O)Nc2cccs2)c1 29%
